Measured values from PubChem BioAssay AID1345082 (National Center for Advancing Translational Sciences (NCATS), 2018).
Values joined by “and” are separate entries in the source; they are usually repeats but may differ in a detail not shown here. Equal entries are not always repeated. About 4,000 (4.3%) of roughly 94,000 compounds were called active. The inconclusive results got no clear call from the source; some entries with a clear call stand among them for comparison. Calls follow the shape of the dose curve; as a rule, active = well fitted inhibition curve with a large enough effect; inconclusive = small, poorly fitted or top-dose-only effect; inactive = no such curve, though single readings can be large or run the other way. Potencies of inconclusive entries are doubtful fits and often do not repeat.

experiment: Cytotoxic Profiling in NIH 3T3 Cell Line of Diverse Libraries Using Quantitative High-Throughput Screening; conditions: NIH 3T3 viability, CellTiter-Glo ATP luminescence, 48-72 h; activity change, negative = cytotoxicity: at 96.7 µM (top of the series); series mostly up to 96.7 µM; also: nearly all actives have a fitted effect of over 55% in size
How it was run: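 ATP-dependent luminescence (CellTiter-Glo) served as the viability signal for NIH 3T3 cells treated with compound for 48 or 72 hr at 37 °C.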
% is scaled to controls: 0 for no effect and ±100 for the full control effect; potency is read from the fitted curve at half-maximal effect; tags tell the direction and shape of the fitted curve.

SMILES | Potency | activity change, negative = cytotoxicity | outcome
CC(C)N1CC(C(=O)NCCc2cccc(F)c2)NC1=O (centres undefined) | inconclusive: 112 µM [inhibitor, partial curve, poor fit] | – | –
COc1ccc([C@H]2C[C@@H](O)[C@@H](O)[C@@H]2NCc2ccc(Cl)cc2)cc1 | inconclusive: 126 µM [inhibitor, single point] | – | –
COC[C@H]1CCCN1Cc1cn(-c2ccccc2C)nc1-c1ccc(OC)c(F)c1 | inconclusive: 50.1 µM [inhibitor, partial curve, poor fit] | – | –
COC(=O)C1=C(C)N=C2SC=C(CC(=O)N3CCOCC3)N2C1c1ccc(OC)cc1OC (centres undefined) | – | inactive: 3.86% | –
COc1cc(CN(C)C(=O)c2c(C)noc2-c2ccc(C(C)(C)C)cc2)cc(OC)c1OC | inconclusive: 50.1 µM [inhibitor, partial curve, poor fit] | – | –
COc1ccc(-c2noc([C@@H]3CCCN3C(=O)c3ccc(C)c(C)c3)n2)cc1 | inconclusive: 56.2 µM [inhibitor, partial curve, poor fit] | – | –
Cc1ccccc1CC(=O)N1CCN(C(=O)c2nnn3c2COC(c2ccc(Cl)cc2)C3)CC1 (centres undefined) | active: 35.5 µM | – | –
CC(C)Cc1nc2nccc(-c3ccc4c(c3)OCCCO4)n2n1 | inconclusive: 44.7 µM [inhibitor, partial curve, poor fit] | – | –
C[S+](=O)([O-])N1CC2(Cc3ccccc31)CN(C(=O)c1ccc(C(F)(F)F)cc1)C2 | inconclusive: 50.1 µM [inhibitor, partial curve, poor fit] | – | –
O=C(Cc1ccccc1Cl)N1CCC(Cc2nc(-c3ccccc3)no2)CC1 | inconclusive: 50.1 µM [inhibitor, partial curve, poor fit] | – | –
O=C(C1CC1)N1CC2(CCCN2Cc2cccnc2)Cc2ccccc21 (centres undefined) | – | inactive: -4.51% | –
Cn1ccc2cc(-c3ccc4c(n3)c(=O)ncn4CC3CC3)ccc21 | inconclusive: 39.8 µM [inhibitor, partial curve, poor fit] | – | –
COc1ccc(C2Cn3nnc(-c4noc(-c5ccncc5)n4)c3CO2)cc1 (centres undefined) | – | inactive: -0.417% | –
COC[C@@H]1CN(Cc2cc(C)nn2C)C[C@H]1c1nc(C2CC2)no1 | – | inactive: -3.85% | –
O=C(c1ccc(Cl)s1)N1CCC(n2cc(-c3nc(-c4ccccc4)no3)nn2)CC1 | inconclusive: 11.2 µM [inhibitor, full curve, poor fit] | – | –
Cc1ccc(C2Cn3nnc(C(=O)N4CCN(C(=O)c5cccs5)CC4)c3CO2)cc1 (centres undefined) | inconclusive: 44.7 µM [inhibitor, partial curve, poor fit] | – | –
CC(C)CNC(=O)c1nc2sccn2c1-c1ccc(F)cc1 | inconclusive: 100 µM [inhibitor, single point] | – | –
Cc1cccc(C)c1-c1nnc2ccc(C(=O)NCc3ccccc3)cn12 | inconclusive: 100 µM [inhibitor, partial curve, poor fit] | – | –
Cc1cccc(C(=O)N2CCC(C(NC(=O)c3ccccc3)C(=O)N3CCCCC3)CC2)c1 (centres undefined) | inconclusive: 70.8 µM [inhibitor, partial curve, poor fit] | – | –
Cc1cnc(CC2CCN(C(=O)CC3CCCC3)CC2)n1Cc1ccc(F)cc1 | inconclusive: 44.7 µM [inhibitor, partial curve, poor fit] | – | –
c1cc2c(cc1-c1noc(-c3nc(-c4ccc5c(c4)OCO5)no3)n1)OCO2 | – | – | inactive
Cn1c(C(=O)N2CCNc3cnc(Nc4ccccc4)nc3C2)cc2ccccc21 | inconclusive: 20 µM [inhibitor, full curve, poor fit] | – | –

SMILES | Potency | activity change, negative = cytotoxicity | outcome
CC(C)N1C(=O)C2(CCCCC2)C1C(=O)NCCCN1CCCc2ccccc21 (centres undefined) | inconclusive: 70.8 µM [inhibitor, single point] | – | –
COc1ccccc1NC(=O)Nc1cccc(-c2ccc(N3CCCCC3)nn2)c1 | inconclusive: 25.1 µM [inhibitor, full curve] | – | –
Cc1cnc(CCNC(=O)C2CCOCC2)n1C1CCCCCCC1 | – | inactive: -24% | –
CCCC(=O)Nc1cccc(C(=O)NC(C(=O)O)c2c(C)n[nH]c2C)c1 (centres undefined) | – | – | inactive
COc1cccc(CN2C(=O)OC3(CCN(C(=O)c4ccn(C)n4)CC3)C2(C)c2cccnc2)c1 (centres undefined) | active: 35.5 µM | – | –
CC(C)NS(=O)(=O)c1ccc2c(c1)nc(-c1ccc(-c3ccn[nH]3)o1)n2C(C)C | inconclusive: 50.1 µM [inhibitor, partial curve] | – | –
O=C1CCN(C(=O)COc2ccc(F)cc2)CCCC(c2nc(-c3cnccn3)no2)CCN1 (centres undefined) | – | inactive: -9.64% | –
CNC(=O)c1cc(C2CC2)nc2onc(C3CCCN3C(=O)NC(C)C)c12 (centres undefined) | – | inactive: -2.27% | –
COc1ccc(CC(=O)N2CCC(C(=O)N3CCC(c4ccccc4)CC3)CC2)cc1 | inconclusive: 50.1 µM [inhibitor, partial curve, poor fit] | – | –
O=C(Nc1cccc(-c2nnc3n2CCCC3)c1)c1cc(C2CC2)[nH]n1 | – | inactive: -23.6% | –
Cc1ccc(-c2nnc(C3CN(C(=O)c4ccc(Cl)s4)CC34CCOCC4)o2)cc1 (centres undefined) | – | inactive: -2.77% | –
CCc1nc2c(c(-c3ccc(OC)cc3)n1)CCN(Cc1ccccc1)CC2 | – | inactive: -16.3% | –
COc1cc(OC)nc(N2C[C@H]3OC(=O)N(Cc4ccccc4OC)[C@H]3C2)n1 | inconclusive: 50.1 µM [inhibitor, partial curve, poor fit] | – | –
Cn1cccc1C(=O)NCC1Cn2cccc2C(=O)N1Cc1cccnc1 (centres undefined) | – | inactive: -29.1% | –
O=C(CCc1ccccc1)N1CCC(n2cc(-c3nc(-c4ccccc4)no3)nn2)C1 (centres undefined) | – | inactive: -27.8% | –
COc1ccc(-c2cc3c(=O)n(CCNC(=O)c4ccccc4C)ccn3n2)cc1 | – | inactive: -20.7% | –
CC(=O)Nc1cccc(OCC2CN(Cc3cccc(C(F)(F)F)c3)C(=O)c3c(ccnc3-c3ccc(OCC(=O)O)cc3)O2)c1 (centres undefined) | inconclusive: 70.8 µM [inhibitor, single point] | – | –
CC1=C[C@@H](CN2CCC(O)CC2)[C@H](C(C)C)C[C@H]1Cc1nnc(C(C)(C)C)o1 | inconclusive: 100 µM [inhibitor, partial curve, poor fit] | – | –
O=C1Nc2ccc(/C=C/c3ccccc3)cc2C(=O)N2C[C@H](O)C[C@@H]12 | inconclusive: 100 µM [inhibitor, partial curve] | – | –
O=C(O)CCn1ncc2cc(OCC3CCN(C(=O)C4CCCC4)CC3)ccc21 | inconclusive: 31.6 µM [inhibitor, partial curve, poor fit] | – | –
COc1cccc(CNC(=O)[C@@H]2C[C@@H](O)CN2C2CCN(C(=O)CCc3ccccc3)CC2)c1 | – | inactive: -18.2% | –
COc1ccc(CN2CC[C@@](O)(C3CC3)[C@H](C)C2)cc1CN1CCCC1 | inconclusive: 79.4 µM [inhibitor, single point] | – | –

SMILES | Potency | activity change, negative = cytotoxicity | outcome
COCc1noc([C@@H]2CN(C(=O)C3CCCCCC3)C[C@H]2CO)n1 | – | inactive: 2.66% | –
CCn1cc(CN2CCC3(CCC(=O)N(C(C)C(=O)O)C3)CC2)cn1 (centres undefined) | – | inactive: -4.52% | –
Cc1ccc(N2CC(c3noc(-c4cc(F)cc(F)c4)n3)CC2=O)cc1 (centres undefined) | inconclusive: 25.1 µM [inhibitor, partial curve, poor fit] | – | –
CCn1cc(S(=O)(=O)NCCc2ncc(C)n2C2CC2)cn1 | – | inactive: -17.9% | –
CNC(=O)[C@H]1CN(C(=O)c2ccc(SC)cc2)[C@]2(C)C(=O)N(CC3CC3)c3ccccc3[C@H]12 | inconclusive: 56.2 µM [inhibitor, partial curve, poor fit] | – | –
O=C(c1ccc2c(c1)OCO2)N1CC(c2noc(C3CCCN3CC3CC3)n2)C1 (centres undefined) | – | inactive: -3.22% | –
O=C(NCC1CCN(Cc2ccccn2)C1)Nc1ccccc1Cl (centres undefined) | inconclusive: 89.1 µM [inhibitor, single point] | – | –
CC(=O)NC1CCN(Cc2cccc(-c3cccs3)c2)CC1 | inactive and inconclusive: 112 µM [inhibitor, partial curve, poor fit] | – | –
Cc1ccc(-c2cccc(CN3CCCC(NC(=O)c4ccccc4Cl)C3)c2)cc1Cl (centres undefined) | inconclusive: 50.1 µM [inhibitor, partial curve, poor fit] | – | –
C=CCN1C[C@H]2COc3ccccc3[C@H]2N(C(=O)OCC)CCC1=O | inconclusive: 50.1 µM [inhibitor, partial curve, poor fit] | – | –
COc1ccccc1C(=O)N1CC(N(C)c2ccccc2C)C1 | inconclusive: 50.1 µM [inhibitor, partial curve, poor fit] | – | –
CC(=O)NC[C@@H]1C=C(C)[C@H](Cc2nnc(-c3cncn3C)o2)C[C@H]1C(C)C | – | inactive: -9.94% [at 174 µM] | –
Cn1ccc(NC(=O)c2cnc3c(c2)N([S+](=O)([O-])c2cccnc2)CCC3)n1 | inconclusive: 100 µM [inhibitor, single point] | – | –
O=C(NC1CCCN(c2cc(-c3ccccc3)[nH]n2)C1)c1ccccc1Cl (centres undefined) | inconclusive: 50.1 µM [inhibitor, partial curve, poor fit] | – | –
C#CCNC(=O)[C@@H]1Cc2cn(CC#CC)c3cccc(c23)[C@H](CC(C)C)N1 | inconclusive: 35.5 µM [inhibitor, partial curve, poor fit] | – | –
COc1cc(F)ccc1-c1cc(-c2cn[nH]c2)c2cncn2c1 | active: 31.6 µM | – | –
Cc1cccc(-c2noc([C@@H]3Cc4nc[nH]c4CN3)n2)c1 | – | inactive: -26.7% [at 230 µM] | –
CC(C)CC(=O)N1CCCC(c2noc(COc3ccccc3F)n2)C1 (centres undefined) | inconclusive: 44.7 µM [inhibitor, partial curve] | – | –
COc1ccc(-c2cc(C(=O)NCc3cccnc3)c3c(c2)N(C)CCO3)cc1OC | inconclusive: 100 µM [inhibitor, partial curve, poor fit] | – | –
COCc1cccc(-c2ccc3c(n2)c(=O)ncn3Cc2ccccc2)c1 | inconclusive: 56.2 µM [inhibitor, partial curve, poor fit] | – | –
